# Source: ChEMBL document CHEMBL4888484, “Replenishing the malaria drug discovery pipeline: Screening and hit evaluation of the MMV Hit Generation Library 1 (HGL1) against asexual blood stage Plasmodium falciparum ,using a nano luciferase reporter read-out” (2022)
# About 540 (0.36%) of roughly 150,000 compounds showed an effect of 50% or more. The list shows a part of the results.
# Tested on: Plasmodium falciparum
# Experiment: Primary screen in NF54 nanoGlo assay, in single point, at 2uM, 72h; a lower Z score goes with more inhibition
# Assay type: functional, Erythrocyte
# Settings: timepoint 72 hour
SMILES,% Inhibition [%],Z score
O=C(CN1C(=O)NC2(CCCCCCC2)C1=O)Nc1ccccc1Br,-6,0.91
CC(C)CCNC(=O)[C@]1(C)CN(S(=O)(=O)c2ccccc2)CC(=O)N1C1CCCC1,-22,2.8
CCCCn1nnnc1CN1CCC[C@H]1c1noc(CC)n1,-17,1.43
CC(=O)Nc1ccc2c(c1)C(=O)N(C)c1ccccc1O2,-12,1.4
Cc1[nH]c(=O)[nH]c(=O)c1CC(=O)N1CCC[C@@]2(CCC(=O)N(CC3CC3)C2)C1,0,0.04
COc1cc(N2CCC(CNC(=O)c3cc(C)on3)CC2)nc(OC)n1,-7,0.86
Cc1cnc2c(C(=O)N3CC4(CCOCC4)CC[C@@H]3CO)cnn2c1,-11,1.14
CC[C@H](NC1CCOCC1)C(C)(C)c1ccccc1,-3,0.51
COCCCN(Cc1ccc(C(O)(c2ccc(OC)cc2)c2ccc(OC)cc2)o1)Cc1ccccc1OC,3,-0.38
Cc1nc(CNC2(c3c(F)cccc3F)CCC2)[nH]c1C,-11,1.15
CCOc1ccccc1COC(=O)c1cnc2c(c1)ncn2C,-9,1.1
COCC(=O)N1CCN(c2ccc(F)cc2)C(=O)[C@@H]1C,-14,2.74
Cc1ccc(S(=O)(=O)NC[C@H]2O[C@@H](CC(=O)N3CCN(c4ccccc4)CC3)[C@H](O)[C@@H]2O)cc1,5,-0.83
Cc1c(Cl)cccc1C(=O)N(C)Cc1cnccn1,2,-0.4
Cc1cc(C)n(-c2cc(N3CC(C(=O)Nc4ccc(S(N)(=O)=O)cc4)C3)ncn2)n1,14,-1.82
Cc1ccc(C2(c3noc(COc4cccnc4N)n3)CCCC2)cc1,-11,1.82
Cc1cccc(N2CCN(C(=O)Nc3ccn(CCC#N)n3)CC2)c1C,-8,1.28
CS(=O)(=O)NC(=O)c1ccc(Cl)cc1F,-23,2.53
COCCN(C(=O)c1cnn(-c2ccccc2)n1)C1CC1,-7,0.66
C1=CCC(NC(=NC[C@H]2CCCCO2)NCc2nc(C3CC3)no2)C1,-2,0.46
CCn1ncc(C2=NO[C@H](C(=O)N3CCN(c4ccccc4)CC3)C2)c1C,-10,1.39
Cc1ccc(CNC(=O)c2ccc[n+]([O-])c2)s1,7,-0.93

SMILES,% Inhibition [%],Z score
CC(C)Oc1cc(N2CCC[C@H](c3nccn3CC(N)=O)C2)nc(N)n1,-4,0.62
CCCS(=O)(=O)N1CCC[C@H](C(=O)Nc2nc(-c3c(F)cccc3F)cs2)C1,-3,0.49
COc1cccc(N2CCC[C@H](NCc3cn(C(C)(C)C)nn3)C2)c1,-6,0.62
Cc1nc(-c2cnn(C(C)C)c2)n(CC(F)(F)F)n1,-7,1.3
CC(=O)Nc1ccc(Br)cc1N,-7,0.6
Cc1nnc(CC(=O)NC[C@H]2CCC[C@@H]2O)s1,5,-0.64
C[C@@H](Cc1ccc(F)cc1)Nc1ccnn1C,-1,0.11
COc1ccc(OC)c(S(=O)(=O)N2CCCCC[C@H]2c2cccc(C)c2)c1,-1,0.19
O=C(O)[C@H]1CN(C(=O)c2c(F)cccc2F)C[C@@H]1c1ccc2c(c1)OCO2,-2,0.21
Cc1c(S(=O)(=O)NCc2ccc(O)cc2O)cnn1C,-13,1.07
CC(=O)N1CCCN(C(=O)c2n[nH]c3ccccc23)CC1,-5,0.79
c1cc(CN2CCCO[C@@H](CN3CCOCC3)C2)ccn1,-6,0.97
Cc1noc(CNC(=O)C2CCN(C(=O)Cc3cccs3)CC2)n1,-3,0.47
Cc1ccn2c(=O)c(C(=O)NCc3ccccc3)c(O)nc2c1,-2,0.29
CN(Cc1ccc(Cl)s1)C(=O)CN1CCC[C@H](C(=O)O)C1,-14,1.42
O=C1CNC(=O)N1Cc1nc(CCc2ccccc2)nn1-c1ccccc1,7,-1.05
O=c1n(-c2ccccc2)c(=O)n2n1CCC2,2,-0.2
O=C(NCCc1ccccc1)c1cc2n(n1)C[C@@H](c1ccccc1)OC2,1,-0.18
CN(Cc1csc(-c2ccccc2)n1)C(=O)c1c[nH]c(=O)[nH]c1=O,-1,0.28
CCN1CCN(c2nc3nonc3nc2NCc2cccs2)[C@@H](C)C1=O,-10,1.38
O=C(NCc1ccc(Oc2ccccc2)cn1)[C@H]1CCS(=O)(=O)C1,-11,1.31
FC1CC2(CCC1NCc1noc3c1CCCC3)OCCO2 (configuration not stated),-3,0.61

SMILES,% Inhibition [%],Z score
CC1CCC2(CCN(C(=O)c3ccc4cncn4c3)C2)C1 (configuration not stated),-9,0.9
Nc1ccc2c(-c3ccccc3)c(-c3ccccc3)[nH]c2n1,6,-1.14
O=C(NCCCOC1CCCC1)[C@H]1CCOc2ccccc2C1,-11,1.2
O=C(NC[C@H]1CCCO1)c1ccc2c(c1)C(=O)N(Cc1ccccc1)C2=O,-7,1.39
O=C(Cc1c[nH]c2cc(Cl)ccc12)N1CCCC1,-2,0.33
O=C1NC[C@H]2CN(Cc3c(Cl)cccc3N3CCCC3)CCN12,-3,0.27
Cc1cc(CCC(=O)N2CC(N3C(=O)COC3=O)C2)ccc1Cl,-9,1.06
CN(Cc1cn(C)nn1)CC1(O)CCC1,4,-0.56
COCC[C@]1(NC(=O)c2ccc(F)cc2)CCN(S(=O)(=O)c2ccc(C)c(F)c2)C1,-2,0.35
OCCn1nc(C2CCOCC2)nc1-c1ccc([C@@H]2CCCO2)s1,9,-1.23
Cn1c(CN2CCN(c3ccnc4ccccc34)CC2)cc(=O)n(C)c1=O,17,-2.24
CC1Cc2cc(F)ccc2C(C)N1C(=O)c1ccc(=O)n(C)n1 (configuration not stated),-45,5.26
Cc1ccc(C)c(CN(Cc2ccccc2)Cc2nc(C(=O)NCCN(C)C)co2)c1,-13,1.6
CC(=O)c1ccc(C(=O)NC[C@H]2CCCOC2)cc1O,2,-0.27
CCCN(CC(=O)NC)Cc1cc2ccccc2c(=O)[nH]1,1,-0.1
COc1cccc(CN2CCC[C@@]3(CCN(Cc4cccnc4)C3)C2=O)c1OC,-8,1.19
C#CCOC[C@@H](O)CN(CCCOC)Cc1ccccc1,-3,0.49
Cc1nnc2n1CCN(C(=O)c1ccc(-c3ccccc3F)o1)C2,-9,1.18
COC(=O)COc1cc(-c2ccc(OC)cc2)nc2ccc(NC(=O)c3c(F)cccc3F)cc12,20,-2.06
CC1=NN=C(c2ccccc2)[C@H](c2ccc(O)cc2O)N1O,-21,2.46
COc1cc(Br)c(NC(=O)N(C)CC(C)C)cc1OC,-13,1.89
Cc1c(C(=O)NCc2cccs2)sc2ncnc(N(C)C3CCCCC3)c12,4,-0.39

SMILES,% Inhibition [%],Z score
COC(=O)[C@@H]1C[C@@H](N(C)C)CN1C(=O)[C@@]12CC[C@@](C)(OC1=O)C2(C)C,-9,1.38
N#Cc1ccc(Nc2ccc(N3CCc4sccc4C3)nc2)nc1,-6,0.92
Cc1ccc(NC(=O)c2sccc2S(=O)(=O)N(C)c2ccccc2)cc1Cl,-1,0.08
CC(NCC(CCO)c1ccccc1)c1ncc(-c2ccccc2)o1 (configuration not stated),-6,1.23
N#Cc1ccnc(NCCc2nccs2)c1,-4,0.61
COc1ccc(C(=O)Nc2c(C)nc3ncnn3c2O)cc1,45,-5.1
COCCCC1CCN(C[C@H]2COCCO2)CC1,8,-1.07
Cc1nc(NS(=O)(=O)c2ccc(F)c(F)c2)n(-c2ccc(C#N)cc2)n1,-11,1.18
CCc1nccn1C[C@H](C)NC1CCN(C(=O)Nc2ccccc2)CC1,14,-1.81
Cc1cc(NC(N)=O)cc2sc(=O)oc12,-2,0.32
Cc1nnccc1C(=O)N[C@](C)(CO)Cc1ccc(Cl)cc1,4,-0.48
O=C(c1cccnc1)N1CC(c2nc(C3CC3)no2)C1,-7,1.37
Cn1cc(CCNC(=O)CCCN2CCCC2=O)cn1,-19,3.22
CC[C@H]1c2cccn2CCN1C(=O)c1csc(C)n1,-8,0.99
Cc1cc2nc(CS(=O)(=O)c3ccccc3)cc(O)n2n1,-6,0.79
COc1ccccc1CNC1CC(C)OC1C (configuration not stated),-11,1.45
CC(C)n1cc(C(=O)N(C)Cc2ccc3nccnc3c2)cn1,-19,3.56
COc1ccc(Cn2nc3nc(Nc4ccc(F)c(C)c4)cc(C)n3c2=O)cc1,-12,1.31
CC(C)(C)c1ccc(-c2ccc(CN3CCN4C(=O)NC(=O)[C@@H]4C3)o2)cc1,-7,1.11
CO[C@H]1C[C@H](C(=O)N(C)C(C)c2ccccc2)N(S(C)(=O)=O)C1 (some centres not stated),-6,0.83
